Test results taken from the supplement of paper PMC7826260.
This is one part of the list. Viral Rep nickase domains cut single-stranded DNA in vitro for 1 h at 37 °C with 3 µM enzyme; only the middle of the 90-letter strands is printed. The score is log2 (uncut reads / reads without enzyme); uncut sequences lie near 0, cut ones below; no hit call is given. Shares of all reads are compared; values above 0 arise when much of the pool is cut.

Assays:
Assay in all cases: uncleaved DNA left, log2 of reads against the no-enzyme library (log2 ratio); higher = less cleavage (more negative = more Rep cleavage of the k-mer); sequences stand for … in CTCGTCCG…ACCGGAGA
[1] = tested on: T1, Rep nickase domain of Muscovy duck circovirus
T1 sequence (residues 1-111, tag not shown): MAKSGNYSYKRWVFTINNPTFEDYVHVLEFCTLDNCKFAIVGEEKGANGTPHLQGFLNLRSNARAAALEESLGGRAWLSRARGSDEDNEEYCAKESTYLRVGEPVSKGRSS
Procedure: (§1)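 A pool of 90-nt single-stranded DNAs with seven random bases just before the constant AC of the nick site (name = the seven bases) was cut by 3 µM recombinant His6-SUMO-tagged Rep nickase domain (300 nM DNA, 50 mM HEPES pH 8.0, 50 mM NaCl, 1 mM MnCl2, 1 h, 37 °C, three replicates). Uncut DNA was amplified and sequenced.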

[2] = tested on: T2, Rep nickase domain of banana bunchy top virus
T2 sequence (residues 1-94, tag not shown): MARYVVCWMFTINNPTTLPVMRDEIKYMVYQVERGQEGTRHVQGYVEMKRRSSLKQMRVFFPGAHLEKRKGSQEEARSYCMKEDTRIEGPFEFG
Procedure: as §1

[3] = tested on: T3, Rep nickase domain of cabbage leaf curl virus
T3 sequence (residues 1-116, tag not shown): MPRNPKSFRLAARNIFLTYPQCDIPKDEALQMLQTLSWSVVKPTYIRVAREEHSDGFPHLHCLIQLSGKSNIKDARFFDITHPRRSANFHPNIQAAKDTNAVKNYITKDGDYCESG
Procedure: as §1

[4] = tested on: T4, Rep nickase domain of chickpea chlorotic dwarf virus
T4 sequence (residues 1-124, tag not shown): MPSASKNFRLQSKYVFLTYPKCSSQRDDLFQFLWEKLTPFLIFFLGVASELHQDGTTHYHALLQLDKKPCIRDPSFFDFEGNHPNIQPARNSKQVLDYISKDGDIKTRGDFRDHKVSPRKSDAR
Procedure: as §1

[5] = tested on: T5, Rep nickase domain of faba bean necrotic yellows virus
T5 sequence (residues 1-98, tag not shown): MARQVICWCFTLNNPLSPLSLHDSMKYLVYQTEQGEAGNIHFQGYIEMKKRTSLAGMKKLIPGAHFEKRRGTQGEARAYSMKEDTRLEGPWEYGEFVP
Procedure: as §1

[6] = tested on: T6, Rep nickase domain of maize striate mosaic virus
T6 sequence (residues 1-117, tag not shown): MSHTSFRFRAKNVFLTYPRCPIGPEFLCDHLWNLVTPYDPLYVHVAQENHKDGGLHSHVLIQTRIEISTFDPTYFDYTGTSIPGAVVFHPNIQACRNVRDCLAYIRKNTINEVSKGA
Procedure: as §1

[7] = tested on: T7, Rep nickase domain of porcine circovirus 2
T7 sequence (residues 2-116, tag not shown): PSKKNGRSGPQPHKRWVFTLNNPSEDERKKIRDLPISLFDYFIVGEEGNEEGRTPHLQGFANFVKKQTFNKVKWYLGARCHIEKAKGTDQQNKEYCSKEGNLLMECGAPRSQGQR
Procedure: as §1

[8] = tested on: T8, Rep nickase domain of tomato golden mosaic virus
T8 sequence (residues 1-124, tag not shown): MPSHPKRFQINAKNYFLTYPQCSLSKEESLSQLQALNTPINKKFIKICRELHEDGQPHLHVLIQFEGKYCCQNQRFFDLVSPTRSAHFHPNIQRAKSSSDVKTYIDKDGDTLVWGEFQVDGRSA
Procedure: as §1

[9] = tested on: T9, Rep nickase domain of tomato yellow leaf curl virus
T9 sequence (residues 1-136, tag not shown): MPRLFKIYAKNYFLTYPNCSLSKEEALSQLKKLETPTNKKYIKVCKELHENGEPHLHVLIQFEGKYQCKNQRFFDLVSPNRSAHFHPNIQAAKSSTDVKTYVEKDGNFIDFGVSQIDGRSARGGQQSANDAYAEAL
Procedure: as §1

[10] = tested on: T10, Rep nickase domain of wheat dwarf virus
T10 sequence (residues 1-137, tag not shown): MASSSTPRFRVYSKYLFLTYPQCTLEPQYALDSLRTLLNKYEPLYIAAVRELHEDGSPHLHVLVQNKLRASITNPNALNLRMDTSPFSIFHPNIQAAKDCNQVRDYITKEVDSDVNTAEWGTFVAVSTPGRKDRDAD
Procedure: as §1

Sequence	uncleaved DNA left (log2) [1]	uncleaved DNA left (log2) [2]	uncleaved DNA left (log2) [3]	uncleaved DNA left (log2) [4]	uncleaved DNA left (log2) [5]	uncleaved DNA left (log2) [6]	uncleaved DNA left (log2) [7]	uncleaved DNA left (log2) [8]	uncleaved DNA left (log2) [9]	uncleaved DNA left (log2) [10]
GGGCGTA	-0.0422	-0.0281	0.691	1.78	-0.267	2	0.184	-0.0401	-0.112	0.0457
GCCGGCC	0.134	0.0955	0.234	0.651	-0.0496	0.262	0.214	0.114	0.0284	0.0578
GATCCAG	0.0399	0.0584	-0.145	0.00906	-0.083	-0.605	0.138	-0.117	-0.00185	0.0874
TAACTTA	-0.164	-0.0595	-1.52	-3.2	0.0559	-0.648	-0.178	-0.254	0.0691	-0.978
TCTTCGG	0.0648	0.00907	0.566	1.48	-0.0152	2.01	0.0837	0.168	-0.0165	0.00689
AGGGTGT	-0.0233	0.0493	0.177	1.12	-0.0487	1.52	0.0914	0.171	-0.027	0.0359
ACCACTT	0.0325	-0.0431	-0.258	-2.88	0.0414	-0.603	-0.255	0.0536	-0.0457	-0.0715
GGATTAT	-0.0378	0.14	0.538	1.44	-0.0759	1.98	-0.108	0.0289	0.0714	0.103
ATAAGCG	0.00576	0.00179	-0.573	0.898	0.00303	-0.32	0.121	-0.0489	0.0199	-0.035
AGTCTTT	0.0947	-0.164	0.0916	-1.75	-0.392	0.0893	-3.32	0.00359	0.0377	0.0291
TTAAACA	0.0951	0.198	0.195	-1.75	0.0551	-0.165	-0.092	0.0851	0.128	0.0687
ACATCGG	-0.104	-0.0372	-0.471	-0.146	-0.0547	-0.614	0.163	-0.0163	0.00592	-0.142
GAGGCGG	-0.0545	0.00999	0.162	0.572	0.00568	0.531	0.181	0.11	-0.0892	0.0213
GTGTCGC	-0.108	0.11	0.245	0.676	0.0106	1.2	0.176	0.0463	0.0356	0.0581
GAGGCAC	0.126	0.188	0.72	1.63	0.0625	1.96	0.217	0.126	-0.0116	0.159
CGCGTTT	-0.29	-0.297	-0.304	-1.24	-0.0585	-0.639	-0.215	-0.155	-0.0774	-0.136
CCCTCAT	-0.255	-0.268	-0.043	-0.821	-0.0977	-0.496	-0.5	-0.0244	-0.113	-0.104
CAGTTGC	0.162	0.0155	-0.809	-0.373	0.0916	-1.06	0.027	-0.131	0.104	0.0342
ATCTGAG	0.11	0.00937	-0.61	-0.104	0.184	-0.91	0.228	0.0774	0.0571	0.0627
CCTTGAG	0.0665	0.0094	-0.657	0.273	0.141	-0.614	0.224	-0.0464	0.248	0.129

Sequence	uncleaved DNA left (log2) [1]	uncleaved DNA left (log2) [2]	uncleaved DNA left (log2) [3]	uncleaved DNA left (log2) [4]	uncleaved DNA left (log2) [5]	uncleaved DNA left (log2) [6]	uncleaved DNA left (log2) [7]	uncleaved DNA left (log2) [8]	uncleaved DNA left (log2) [9]	uncleaved DNA left (log2) [10]
TGTAGCC	0.091	0.0407	0.128	0.272	0.0894	-0.177	0.102	-0.0205	0.0184	0.131
TAGTCAC	0.0403	-0.0205	0.0314	-0.198	-0.0967	-0.226	-3.04	-0.00919	0.156	0.0767
GCAATTG	-0.174	-0.127	-0.566	-0.26	-0.0893	-0.931	0.101	-0.106	-0.111	-0.254
CACCTCT	0.00707	-0.00105	-0.465	-2.54	0.0116	-0.586	-0.67	0.0255	0.00533	-0.142
ACCCCGT	0.00636	-0.0288	-0.505	-0.816	-0.0897	-1.09	-0.0714	-0.00187	-0.16	-0.189
GCGTTGA	-0.0378	-0.135	-0.104	0.348	-0.123	-0.156	-0.0587	-0.0809	-0.0567	-0.0709
GGAGCAG	-0.0337	0.091	0.685	1.77	-0.0169	1.87	0.246	-0.00474	-0.106	0.128
GCTATTC	0.128	0.0743	0.139	0.518	0.128	-0.0533	0.185	0.0217	0.081	0.0431
AGACCGG	0.14	0.109	0.363	1.16	0.0887	0.891	0.14	0.102	0.0828	0.174
GGCTTAG	0.0563	0.0893	0.00177	0.453	0.0129	0.101	0.165	0.0551	0.0651	0.0817
TCATTAA	0.0541	-0.0199	-0.0643	-0.298	-0.0862	-0.742	-0.0101	0.0804	0.0525	-0.0791
TACGCTG	-0.0484	-0.0105	0.18	0.691	0.0149	1.34	-0.00553	0.0656	-0.17	-0.0254
CGTTGGC	0.000142	-0.115	-0.555	-0.48	-0.0437	-0.966	-0.00423	-0.209	0.0175	-0.214
ACCTTCC	-0.036	-0.027	-0.156	-0.419	-0.223	-0.843	-0.13	-0.0699	-0.128	-0.115
GGTTCAT	-0.0606	0.00215	0.73	1.84	-0.104	2.25	0.0783	-0.0401	0.0393	0.128
ATTATGA	-0.0225	-0.138	-0.122	0.0168	-0.0585	-0.866	-0.105	-0.1	-0.0569	0.0161
ACAATCA	0.0132	0.112	0.0291	-1.07	0.0144	-0.333	0.14	0.0516	-0.0244	0.172
CCTATCG	0.00883	0.127	-0.641	0.172	0.0112	-1.05	0.0802	-0.0388	-0.0995	-0.0982
GGTCTTG	-0.0251	0.135	0.202	0.268	0.0263	0.782	0.0711	0.0437	0.0439	0.112
ACCGCCT	0.0417	-0.116	-0.439	-1.72	-0.00736	-0.577	-0.0807	0.0208	-0.117	-0.257

Sequence	uncleaved DNA left (log2) [1]	uncleaved DNA left (log2) [2]	uncleaved DNA left (log2) [3]	uncleaved DNA left (log2) [4]	uncleaved DNA left (log2) [5]	uncleaved DNA left (log2) [6]	uncleaved DNA left (log2) [7]	uncleaved DNA left (log2) [8]	uncleaved DNA left (log2) [9]	uncleaved DNA left (log2) [10]
TTTCTTG	0.0449	-0.0289	-0.389	-1.9	0.0589	-1.09	-0.0312	-0.153	0.0592	-0.0805
ATGAGGA	0.157	0.0225	0.215	0.552	0.025	-0.16	0.172	0.132	-0.0605	0.0253
TTCCGCG	-0.00466	-0.00282	-0.661	0.467	-0.047	-0.608	0.129	-0.124	-0.115	-0.0951
TGTACAG	0.122	0.145	-0.393	-0.867	0.0321	-0.622	0.211	0.0467	0.169	0.121
ATCCACC	-0.0286	-0.133	-0.06	-0.527	-0.163	-0.618	-0.243	-0.0746	-0.138	-0.142
GGGTTTA	-0.043	0.0562	0.739	1.51	-0.0953	2.05	0.0908	-0.0292	0.0539	0.13
TAATCAA	0.0946	0.199	-2.2	-1.91	0.0281	-0.0567	-0.0232	-0.447	0.232	-0.935
GATCAGC	0.109	0.124	0.221	0.562	0.111	-0.0616	0.202	0.0837	0.124	0.236
CCGTCCT	-0.543	-0.155	-0.131	-1.62	-0.328	-0.234	-2.31	0.0173	-0.138	-0.323
ATTACTA	-0.0403	-0.0807	-0.269	-2.52	-0.037	-0.673	-0.188	0.0826	0.0496	-0.0413
CTGCTCG	-0.145	-0.213	-0.915	-0.391	-0.0886	-0.972	-0.0287	-0.145	-0.098	-0.337
CTGCTTC	0.0268	0.0404	0.104	-0.387	0.0791	-0.707	-0.0578	-0.244	0.0951	-0.137
TAGGGGA	-0.0185	0.0853	0.589	1.02	0.0763	1.6	0.15	0.0373	-0.121	0.0915
GCCTAGA	0.109	0.0871	0.212	0.545	-0.00743	-0.274	0.0527	0.0627	0.0549	-0.0108
AAGTGTA	-0.11	-0.247	0.0239	-0.356	-0.0579	0.616	-2.68	0.00236	-0.0571	-0.0845
TATTGGG	-0.0858	-0.196	-0.647	-0.544	-0.145	-1.11	0.0975	0.00411	-0.0871	-0.0876
GTCCCAG	0.0624	0.0734	0.35	0.769	-0.0391	1.3	0.129	0.19	0.0849	0.147
GACGTGT	0.138	0.0668	0.178	0.434	0.12	0.781	-0.00204	0.0663	-0.107	0.0116
GTATCCC	0.134	0.0776	0.312	0.83	0.0506	1.57	-0.0625	0.13	0.0854	0.103
GCGTGAT	-0.142	-0.0211	0.153	0.588	-0.0392	1.08	-2.33	-0.00369	-0.015	-0.0974
